In the supplement of paper PMC7826260:
The list shows a part of the results. Each Rep nickase domain was tested in vitro on the same pool of single strands (1 h at 37 °C, 3 µM enzyme); the outer parts of the 90-letter strands are left off. A value is the log2 ratio of uncut reads to the pool without enzyme; more negative means more cut, near 0 not cut, and no call is made. Because reads are shares of a total, they shift together; where an enzyme cuts many sequences, the uncut ones exceed 0.

Key:
Test in all cases: uncleaved DNA left, log2 of reads against the no-enzyme library (log2 ratio); higher = less cleavage (more negative = more Rep cleavage of the k-mer); sequences stand for … in CTCGTCCG…ACCGGAGA
[1] = system: T1, Rep nickase domain of Muscovy duck circovirus
T1 sequence (residues 1-111 of Rep, tag left off): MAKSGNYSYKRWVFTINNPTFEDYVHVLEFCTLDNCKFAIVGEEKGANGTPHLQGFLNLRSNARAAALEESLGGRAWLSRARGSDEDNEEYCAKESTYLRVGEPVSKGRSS
Procedure: (§1)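 A pool of 90-nt single-stranded DNAs with seven random bases just before the constant AC of the nick site (name = the seven bases) was cut by 3 µM recombinant His6-SUMO-tagged Rep nickase domain (300 nM DNA, 50 mM HEPES pH 8.0, 50 mM NaCl, 1 mM MnCl2, 1 h, 37 °C, three replicates). Uncut DNA was amplified and sequenced.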

[2] = system: T2, Rep nickase domain of banana bunchy top virus
T2 sequence (residues 1-94 of Rep, tag left off): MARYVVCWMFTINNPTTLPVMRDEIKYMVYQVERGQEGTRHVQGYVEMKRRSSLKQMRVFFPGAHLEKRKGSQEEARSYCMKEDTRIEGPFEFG
Procedure: as §1

[3] = system: T3, Rep nickase domain of cabbage leaf curl virus
T3 sequence (residues 1-116 of Rep, tag left off): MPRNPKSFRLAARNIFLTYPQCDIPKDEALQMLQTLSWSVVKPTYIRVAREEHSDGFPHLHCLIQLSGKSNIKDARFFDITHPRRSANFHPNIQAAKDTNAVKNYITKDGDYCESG
Procedure: as §1

[4] = system: T4, Rep nickase domain of chickpea chlorotic dwarf virus
T4 sequence (residues 1-124 of Rep, tag left off): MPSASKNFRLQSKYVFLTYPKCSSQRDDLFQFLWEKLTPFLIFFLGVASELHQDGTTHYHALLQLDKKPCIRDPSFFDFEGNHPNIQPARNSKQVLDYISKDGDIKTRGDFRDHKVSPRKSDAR
Procedure: as §1

[5] = system: T5, Rep nickase domain of faba bean necrotic yellows virus
T5 sequence (residues 1-98 of Rep, tag left off): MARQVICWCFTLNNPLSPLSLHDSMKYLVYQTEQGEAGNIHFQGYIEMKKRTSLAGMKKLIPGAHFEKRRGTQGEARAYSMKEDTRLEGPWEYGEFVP
Procedure: as §1

[6] = system: T6, Rep nickase domain of maize striate mosaic virus
T6 sequence (residues 1-117 of Rep, tag left off): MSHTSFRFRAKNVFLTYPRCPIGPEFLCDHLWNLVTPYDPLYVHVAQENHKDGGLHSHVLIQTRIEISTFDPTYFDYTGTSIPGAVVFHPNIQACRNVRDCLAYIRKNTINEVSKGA
Procedure: as §1

[7] = system: T7, Rep nickase domain of porcine circovirus 2
T7 sequence (residues 2-116 of Rep, tag left off): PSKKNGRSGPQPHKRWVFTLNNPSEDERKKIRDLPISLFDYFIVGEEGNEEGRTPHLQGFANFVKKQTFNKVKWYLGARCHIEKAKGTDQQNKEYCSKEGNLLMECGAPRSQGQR
Procedure: as §1

[8] = system: T8, Rep nickase domain of tomato golden mosaic virus
T8 sequence (residues 1-124 of Rep, tag left off): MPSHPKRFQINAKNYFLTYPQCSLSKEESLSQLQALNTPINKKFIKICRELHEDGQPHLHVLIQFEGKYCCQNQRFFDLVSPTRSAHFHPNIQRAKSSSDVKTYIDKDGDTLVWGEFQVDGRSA
Procedure: as §1

[9] = system: T9, Rep nickase domain of tomato yellow leaf curl virus
T9 sequence (residues 1-136 of Rep, tag left off): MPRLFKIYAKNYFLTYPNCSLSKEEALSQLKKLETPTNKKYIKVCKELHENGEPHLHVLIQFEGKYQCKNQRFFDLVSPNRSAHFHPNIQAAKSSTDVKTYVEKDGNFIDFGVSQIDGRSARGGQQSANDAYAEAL
Procedure: as §1

[10] = system: T10, Rep nickase domain of wheat dwarf virus
T10 sequence (residues 1-137 of Rep, tag left off): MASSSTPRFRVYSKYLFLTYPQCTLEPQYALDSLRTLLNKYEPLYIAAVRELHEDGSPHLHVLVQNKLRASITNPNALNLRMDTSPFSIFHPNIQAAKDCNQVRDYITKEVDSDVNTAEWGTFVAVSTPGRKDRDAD
Procedure: as §1

Sequence	uncleaved DNA left (log2) [1]	uncleaved DNA left (log2) [2]	uncleaved DNA left (log2) [3]	uncleaved DNA left (log2) [4]	uncleaved DNA left (log2) [5]	uncleaved DNA left (log2) [6]	uncleaved DNA left (log2) [7]	uncleaved DNA left (log2) [8]	uncleaved DNA left (log2) [9]	uncleaved DNA left (log2) [10]
TTACCTC	0.0374	-0.00483	0.102	-1.62	-0.108	0.182	-0.886	-0.0125	0.0899	0.0969
CCACTGA	0.104	-0.0401	0.046	0.308	0.032	0.44	0.0921	-0.00457	-0.0363	-0.118
ACTCGAC	0.123	0.00263	-0.0626	0.0791	0.0458	-0.396	0.159	0.151	-0.0327	0.0139
GGTAACA	-0.084	0.116	0.646	1.32	-0.0246	2.01	0.24	0.0458	0.139	0.203
GGGAACA	0.0915	0.145	0.907	2.15	-0.00697	2.31	0.219	0.102	0.0219	0.153
CCCTGTG	0.00342	-0.0295	-0.72	-0.112	0.048	-1.11	0.131	-0.0461	-0.0798	-0.079
TGTAACA	-0.149	-0.129	0.0509	-0.634	-0.0797	0.968	-0.151	-0.0034	-0.0151	0.0402
AAAGCAA	0.027	0.073	-0.0115	-0.102	-0.0161	-0.343	0.00568	0.0816	-0.00688	0.0536
AGGAACG	-0.11	0.081	-0.649	-0.621	0.0345	-0.896	0.195	-0.00385	-0.00595	-0.11
TCATAAC	-0.051	-0.0436	-0.391	-1.61	-0.0482	-0.76	-0.0189	0.0337	-0.0213	-0.129
CCTCCGT	0.133	0.0409	-0.0553	-0.614	-0.0022	-0.657	-0.0257	-0.129	-0.161	-0.0317
CCTGTGC	0.0526	-0.0837	-0.705	-0.722	0.0264	-1.05	0.13	-0.101	0.0403	-0.00164
TTAGTTA	0.0689	-0.141	0.136	-0.94	0.00858	0.17	-0.164	-0.00815	0.0389	-0.0484
TCCTAAT	-1.78	-0.00417	0.0802	-0.994	-0.106	-0.271	-3.44	-0.0637	0.0654	0.0606
GTCCAAA	-0.000254	0.0914	0.285	1.07	-0.0242	1.7	0.0328	0.122	0.143	0.279
ACGAGGC	0.0111	0.063	-0.275	-0.112	0.038	-0.955	0.182	0.0452	0.0919	-0.034
TCTTCAC	-0.0713	-0.0813	-0.00926	-0.409	-0.0121	-0.598	-0.0788	-0.0709	0.00016	-0.141
GCTTTGG	0.189	0.0596	-0.157	-0.0936	0.167	-0.807	0.234	0.0714	0.189	0.0245
CATGTAT	0.00574	-0.185	-0.0727	-0.7	0.0232	-0.456	-0.185	-0.0358	-0.175	-0.00157
CACGGCC	-0.0279	-0.092	-0.213	-0.0143	0.0267	-0.561	-0.0742	-0.123	-0.119	-0.134
ATCGCTG	0.0172	0.116	0.207	0.867	-0.0557	1.31	0.0605	0.0622	-0.12	0.0363
TCAAAAC	0.105	0.0827	0.19	-0.278	0.075	-0.568	0.138	0.206	0.0425	0.0829
ACCATAC	0.0218	0.0449	-0.383	-0.782	0.0915	-1.02	0.17	0.0838	0.00934	-0.0152
CAGATGG	0.0765	-0.0277	-0.22	-0.14	0.0828	-0.828	0.123	0.0263	-0.127	-0.0764
GGTAGAT	0.0238	0.0453	0.718	1.76	0.0088	2.08	0.165	0.0493	-0.00415	0.142
GGGTGCT	0.114	-0.0042	0.801	1.63	-0.0468	2.08	-1.52	-0.0644	0.0131	0.0731
ATGTAAC	0.0115	-0.106	-0.52	-1.43	-0.0372	-0.746	-0.075	0.0406	-0.0374	-0.0974
GGCCGTC	-0.0746	0.0296	0.378	0.886	-0.127	1.36	0.0212	-0.0952	-0.0325	0.0365
GCCCGTG	-0.132	-0.158	-0.441	-0.334	-0.0816	-0.803	-0.0427	-0.0678	-0.0492	-0.162
GTAGGAG	-0.0155	0.00893	0.0426	0.375	0.153	-0.328	0.191	0.0385	0.0661	0.0837
